# Measured values published in the supplement of paper PMC8728848.
# This is one part of the list.
# B1: ClecSol-Fc (Cryptosporidium parvum) (protein)
# chain: CPEGWISNGEKTRCFKLVTFDRPRTFSHGFKACNDLGGTEVETRRRNGSKETNEYPVTLASVYKLSDEEAIRRTLVEQGDIHKTANGCFVGLRKYAFFRYPPGWYWIDSGSPVSVRDSEINWTSSYNASWLLRFKFPFEKCGFFDIGGLGRRPCWLIDSELSCAVCGTVAYDSGGLNPNKYSELIKQTDEIISKEPKLDLPGYNNLNCTDAWENNLSVGLCQNVSNILDSAWSSYQSSLNFPSINFNWKEDSTNEGGDQVYHNSYLDLPRYKQKKTFYWDQDPGTIPALSDEMKLIGLSAQPTYHPLDRSSSGSFESDSTESGRANEERNDTLEEMIYKQSSDSIEDILVPVTKPIFSDYSSIGRNSGVEEVYSSNVSTISSKGVVFPNTTTSSDNDFTKNNPANSSKHTSTSTTTNTTTTTTRTTTTTTTTTTTTTTTTTTTTETTTTKKSTTATKNTTTT
# Legend:
# Assay in all cases: glycan array binding signal (z-score within array); higher = stronger binding
# Conditions in all cases: glycan notation: IUPAC condensed, linker removed
# [1] = molecular target: Gal(a1-3)[Gal(a1-4)]Gal(b1-4)GlcNAc
# Summary of the method: (§1)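 The binding signal is a Z-score computed within each array. Data were drawn from 3228 arrays in the Consortium for Functional Glycomics database, restricted to those with a known protein sequence. Scores were averaged over arrays of the same protein sequence at different concentrations or buffers, and over linkers, and negative values can be taken as non-binding.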
# [2] = molecular target: Gal(a1-4)Gal(b1-3)GlcNAc(b1-2)Man(a1-3)[Gal(a1-4)Gal(b1-3)GlcNAc(b1-2)Man(a1-6)]Man(b1-4)GlcNAc(b1-4)GlcNAc
# Summary of the method: as §1
# [3] = molecular target: Gal(a1-4)Gal(b1-4)Glc
# Summary of the method: as §1
# [4] = molecular target: Gal(a1-4)Gal(b1-4)GlcNAc
# Summary of the method: as §1
# [5] = molecular target: Gal(a1-4)Gal(b1-4)GlcNAc(b1-2)Man(a1-3)[Gal(a1-4)Gal(b1-4)GlcNAc(b1-2)Man(a1-6)]Man(b1-4)GlcNAc(b1-4)GlcNAc
# Summary of the method: as §1
# [6] = molecular target: Gal(a1-4)Gal(b1-4)GlcNAc(b1-3)Gal(b1-4)Glc
# Summary of the method: as §1
# [7] = molecular target: Gal(a1-4)GlcNAc
# Summary of the method: as §1
# [8] = molecular target: Gal(a1-6)Glc
# Summary of the method: as §1
# [9] = molecular target: Gal(b1-2)Gal
# Summary of the method: as §1
# [10] = molecular target: Gal(b1-3)Gal
# Summary of the method: as §1
# [11] = molecular target: Gal(b1-3)Gal(b1-4)GlcNAc
# Summary of the method: as §1
# [12] = molecular target: Gal(b1-3)GalNAc
# Summary of the method: as §1
# [13] = molecular target: Gal(b1-3)GalNAc(a1-3)[Fuc(a1-2)]Gal(b1-4)Glc
# Summary of the method: as §1
# [14] = molecular target: Gal(b1-3)GalNAc(a1-3)[Fuc(a1-2)]Gal(b1-4)GlcNAc
# Summary of the method: as §1
# [15] = molecular target: Gal(b1-3)GalNAc(b1-3)Gal
# Summary of the method: as §1
# [16] = molecular target: Gal(b1-3)GalNAc(b1-3)Gal(a1-4)Gal(b1-4)Glc
# Summary of the method: as §1
# [17] = molecular target: Gal(b1-3)GalNAc(b1-4)Gal(b1-4)Glc
# Summary of the method: as §1
# [18] = molecular target: Gal(b1-3)GalNAc(b1-4)[Neu5Ac(a2-3)]Gal(b1-4)Glc
# Summary of the method: as §1
# [19] = molecular target: Gal(b1-3)GlcNAc
# Summary of the method: as §1
# [20] = molecular target: Gal(b1-3)GlcNAc(a1-3)Gal(b1-4)GlcNAc
# Summary of the method: as §1
# [21] = molecular target: Gal(b1-3)GlcNAc(a1-6)Gal(b1-4)GlcNAc
# Summary of the method: as §1
# [22] = molecular target: Gal(b1-3)GlcNAc(b1-2)Man
# Summary of the method: as §1
# [23] = molecular target: Gal(b1-3)GlcNAc(b1-2)Man(a1-3)[Gal(b1-3)GlcNAc(b1-2)Man(a1-6)]Man(b1-4)GlcNAc(b1-4)GlcNAc
# Summary of the method: as §1
# [24] = molecular target: Gal(b1-3)GlcNAc(b1-2)Man(a1-3)[Gal(b1-3)GlcNAc(b1-2)Man(a1-6)]Man(b1-4)GlcNAc(b1-4)[Fuc(a1-6)]GlcNAc
# Summary of the method: as §1
# [25] = molecular target: Gal(b1-3)GlcNAc(b1-2)Man(a1-3)[GlcNAc(b1-4)][Gal(b1-3)GlcNAc(b1-2)Man(a1-6)]Man(b1-4)GlcNAc(b1-4)GlcNAc
# Summary of the method: as §1
# [26] = molecular target: Gal(b1-3)GlcNAc(b1-2)[Gal(b1-3)GlcNAc(b1-6)]Man(a1-6)[Gal(b1-3)GlcNAc(b1-2)Man(a1-3)]Man(b1-4)GlcNAc(b1-4)GlcNAc
# Summary of the method: as §1
# [27] = molecular target: Gal(b1-3)GlcNAc(b1-3)Gal(b1-3)GlcNAc
# Summary of the method: as §1
# [28] = molecular target: Gal(b1-3)GlcNAc(b1-3)Gal(b1-4)Glc
# Summary of the method: as §1
# [29] = molecular target: Gal(b1-3)GlcNAc(b1-3)Gal(b1-4)GlcNAc
# Summary of the method: as §1
# [30] = molecular target: Gal(b1-3)GlcNAc(b1-3)Gal(b1-4)GlcNAc(b1-2)Man(a1-3)[Gal(b1-3)GlcNAc(b1-3)Gal(b1-4)GlcNAc(b1-2)Man(a1-6)]Man(b1-4)GlcNAc(b1-4)GlcNAc
# Summary of the method: as §1
# [31] = molecular target: Gal(b1-3)GlcNAc(b1-3)Gal(b1-4)GlcNAc(b1-2)[Gal(b1-3)GlcNAc(b1-3)Gal(b1-4)GlcNAc(b1-6)]Man(a1-6)[Gal(b1-3)GlcNAc(b1-3)Gal(b1-4)GlcNAc(b1-2)Man(a1-3)]Man(b1-4)GlcNAc(b1-4)[Fuc(a1-6)]GlcNAc
# Summary of the method: as §1
# [32] = molecular target: Gal(b1-3)GlcNAc(b1-3)Gal(b1-4)GlcNAc(b1-3)Gal(b1-4)GlcNAc(b1-2)[Gal(b1-3)GlcNAc(b1-3)Gal(b1-4)GlcNAc(b1-3)Gal(b1-4)GlcNAc(b1-6)]Man(a1-6)[Gal(b1-3)GlcNAc(b1-3)Gal(b1-4)GlcNAc(b1-3)Gal(b1-4)GlcNAc(b1-2)Man(a1-3)]Man(b1-4)GlcNAc(b1-4)[Fuc(a1-6)]GlcNAc
# Summary of the method: as §1
# [33] = molecular target: Gal(b1-3)GlcNAc(b1-3)Gal(b1-4)GlcNAc(b1-6)[Gal(b1-3)GlcNAc(b1-3)]Gal(b1-4)Glc
# Summary of the method: as §1
# [34] = molecular target: Gal(b1-3)GlcNAc(b1-3)Gal(b1-4)[Fuc(a1-3)]GlcNAc
# Summary of the method: as §1
# [35] = molecular target: Gal(b1-3)GlcNAc(b1-3)Gal(b1-4)[Fuc(a1-3)]GlcNAc(b1-6)[Gal(b1-3)GlcNAc(b1-3)]Gal(b1-4)Glc
# Summary of the method: as §1
# [36] = molecular target: Gal(b1-3)GlcNAc(b1-3)GalNAc
# Summary of the method: as §1
# [37] = molecular target: Gal(b1-3)GlcNAc(b1-6)Gal(b1-4)GlcNAc
# Summary of the method: as §1
# [38] = molecular target: Gal(b1-3)GlcNAc(b1-6)GalNAc
# Summary of the method: as §1
binder,measurement,setting,value
B1,glycan array binding signal (z-score),[1],-0.114
same,glycan array binding signal (z-score),[2],-0.159
same,glycan array binding signal (z-score),[3],-0.197
same,glycan array binding signal (z-score),[4],-0.064
same,glycan array binding signal (z-score),[5],-0.072
same,glycan array binding signal (z-score),[6],-0.186
same,glycan array binding signal (z-score),[7],-0.167
same,glycan array binding signal (z-score),[8],-0.228
same,glycan array binding signal (z-score),[9],-0.18
same,glycan array binding signal (z-score),[10],-0.059
same,glycan array binding signal (z-score),[11],-0.094
same,glycan array binding signal (z-score),[12],-0.117
same,glycan array binding signal (z-score),[13],-0.248
same,glycan array binding signal (z-score),[14],0.061
same,glycan array binding signal (z-score),[15],0.033
same,glycan array binding signal (z-score),[16],0.031
same,glycan array binding signal (z-score),[17],-0.075
same,glycan array binding signal (z-score),[18],-0.256
same,glycan array binding signal (z-score),[19],-0.084
same,glycan array binding signal (z-score),[20],-0.002
same,glycan array binding signal (z-score),[21],-0.267
same,glycan array binding signal (z-score),[22],0.452
same,glycan array binding signal (z-score),[23],-0.166
same,glycan array binding signal (z-score),[24],0.149
same,glycan array binding signal (z-score),[25],0.091
same,glycan array binding signal (z-score),[26],-0.182
same,glycan array binding signal (z-score),[27],0.054
same,glycan array binding signal (z-score),[28],-0.179
same,glycan array binding signal (z-score),[29],-0.214
same,glycan array binding signal (z-score),[30],-0.273
same,glycan array binding signal (z-score),[31],0.148
same,glycan array binding signal (z-score),[32],-0.189
same,glycan array binding signal (z-score),[33],-0.016
same,glycan array binding signal (z-score),[34],-0.218
same,glycan array binding signal (z-score),[35],-0.204
same,glycan array binding signal (z-score),[36],-0.2
same,glycan array binding signal (z-score),[37],-0.108
same,glycan array binding signal (z-score),[38],-0.18
